{"source": "the supplement of paper PMC8728848", "assay_in_all_cases": "glycan array binding signal (z-score within array); higher = stronger binding", "settings_in_all_cases": "glycan notation: IUPAC condensed, linker removed", "key": {"[1]": {"target": "Man(a1-3)[Man(a1-6)]Man(a1-6)[Man(a1-2)Man(a1-3)]Man(b1-4)GlcNAc(b1-4)GlcNAc", "method_in_brief": "(§1)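 From the Consortium for Functional Glycomics database, 3228 arrays were curated, keeping only those whose protein sequence was available. Binding is given as a within-array Z-score averaged across arrays sharing a protein sequence and across linkers. Negative Z-scores can be read as non-binding.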"}, "[2]": {"target": "Man(a1-3)[Man(a1-6)]Man(a1-6)[Man(a1-3)]Man", "method_in_brief": "as §1"}, "[3]": {"target": "Man(a1-3)[Man(a1-6)]Man(a1-6)[Man(a1-3)]Man(b1-4)GlcNAc(b1-4)GlcNAc", "method_in_brief": "as §1"}, "[4]": {"target": "Man(a1-3)[Man(a1-6)]Man(b1-4)GlcNAc(b1-4)GlcNAc", "method_in_brief": "as §1"}, "[5]": {"target": "Man(a1-3)[Man(a1-6)]Man(b1-4)GlcNAc(b1-4)[Fuc(a1-6)]GlcNAc", "method_in_brief": "as §1"}, "Man(a1-6)Man": {"target": "Man(a1-6)Man", "method_in_brief": "as §1"}, "Man(b1-4)GlcNAc": {"target": "Man(b1-4)GlcNAc", "method_in_brief": "as §1"}, "MurNAc(b1-4)GlcNAc": {"target": "MurNAc(b1-4)GlcNAc", "method_in_brief": "as §1"}, "Neu5Ac(a2-3)Gal": {"target": "Neu5Ac(a2-3)Gal", "method_in_brief": "as §1"}, "[6]": {"target": "Neu5Ac(a2-3)Gal(b1-3)GalNAc", "method_in_brief": "as §1"}, "[7]": {"target": "Neu5Ac(a2-3)Gal(b1-3)GalNAc(b1-3)Gal(a1-4)Gal(b1-4)Glc", "method_in_brief": "as §1"}, "[8]": {"target": "Neu5Ac(a2-3)Gal(b1-3)GalNAc(b1-4)[Neu5Ac(a2-3)]Gal(b1-4)Glc", "method_in_brief": "as §1"}, "[9]": {"target": "Neu5Ac(a2-3)Gal(b1-3)GalNAc(b1-4)[Neu5Ac(a2-8)Neu5Ac(a2-3)]Gal(b1-4)Glc", "method_in_brief": "as §1"}, "[10]": {"target": "Neu5Ac(a2-3)Gal(b1-3)GalNAc6S", "method_in_brief": "as §1"}, "[11]": {"target": "Neu5Ac(a2-3)Gal(b1-3)GlcNAc", "method_in_brief": "as §1"}, "[12]": {"target": "Neu5Ac(a2-3)Gal(b1-3)GlcNAc(b1-2)Man", "method_in_brief": "as §1"}, "[13]": {"target": "Neu5Ac(a2-3)Gal(b1-3)GlcNAc(b1-2)Man(a1-3)[GlcNAc(b1-4)][Neu5Ac(a2-3)Gal(b1-3)GlcNAc(b1-2)Man(a1-6)]Man(b1-4)GlcNAc(b1-4)GlcNAc", "method_in_brief": "as §1"}, "[14]": {"target": "Neu5Ac(a2-3)Gal(b1-3)GlcNAc(b1-2)Man(a1-3)[Neu5Ac(a2-3)Gal(b1-3)GlcNAc(b1-2)Man(a1-6)]Man(b1-4)GlcNAc(b1-4)GlcNAc", "method_in_brief": "as §1"}, "[15]": {"target": "Neu5Ac(a2-3)Gal(b1-3)GlcNAc(b1-3)Gal(b1-3)GlcNAc", "method_in_brief": "as §1"}, "[16]": {"target": "Neu5Ac(a2-3)Gal(b1-3)GlcNAc(b1-3)Gal(b1-4)GlcNAc", "method_in_brief": "as §1"}, "[17]": {"target": "Neu5Ac(a2-3)Gal(b1-3)GlcNAc(b1-3)GalNAc", "method_in_brief": "as §1"}, "[18]": {"target": "Neu5Ac(a2-3)Gal(b1-3)GlcNAc(b1-4)Gal(b1-4)Glc", "method_in_brief": "as §1"}, "[19]": {"target": "Neu5Ac(a2-3)Gal(b1-3)GlcNAc(b1-6)GalNAc", "method_in_brief": "as §1"}, "[20]": {"target": "Neu5Ac(a2-3)Gal(b1-3)GlcNAc6S", "method_in_brief": "as §1"}, "[21]": {"target": "Neu5Ac(a2-3)Gal(b1-3)[Fuc(a1-4)]GlcNAc", "method_in_brief": "as §1"}, "[22]": {"target": "Neu5Ac(a2-3)Gal(b1-3)[Fuc(a1-4)]GlcNAc(b1-3)Gal(b1-3)[Fuc(a1-4)]GlcNAc", "method_in_brief": "as §1"}, "[23]": {"target": "Neu5Ac(a2-3)Gal(b1-3)[Fuc(a1-4)]GlcNAc(b1-3)Gal(b1-4)[Fuc(a1-3)]GlcNAc", "method_in_brief": "as §1"}, "[24]": {"target": "Neu5Ac(a2-3)Gal(b1-3)[GlcNAc(b1-6)]GalNAc", "method_in_brief": "as §1"}, "[25]": {"target": "Neu5Ac(a2-3)Gal(b1-3)[Neu5Ac(a2-6)]GalNAc", "method_in_brief": "as §1"}, "[26]": {"target": "Neu5Ac(a2-3)Gal(b1-3)[Neu5Ac(a2-6)]GlcNAc(b1-3)[Fuc(a1-3)[Gal(b1-4)]GlcNAc(b1-6)]Gal(b1-4)Glc", "method_in_brief": "as §1"}, "[27]": {"target": "Neu5Ac(a2-3)Gal(b1-3)]Neu5Ac(a2-3)Gal(b1-4)]GlcNAc", "method_in_brief": "as §1"}, "Neu5Ac(a2-3)Gal(b1-4)Glc": {"target": "Neu5Ac(a2-3)Gal(b1-4)Glc", "method_in_brief": "as §1"}, "[28]": {"target": "Neu5Ac(a2-3)Gal(b1-4)GlcNAc", "method_in_brief": "as §1"}, "[29]": {"target": "Neu5Ac(a2-3)Gal(b1-4)GlcNAc(b1-2)Man", "method_in_brief": "as §1"}, "[30]": {"target": "Neu5Ac(a2-3)Gal(b1-4)GlcNAc(b1-2)Man(a1-3)[GlcNAc(b1-4)][Neu5Ac(a2-3)Gal(b1-4)GlcNAc(b1-2)Man(a1-6)]Man(b1-4)GlcNAc(b1-4)GlcNAc", "method_in_brief": "as §1"}, "[31]": {"target": "Neu5Ac(a2-3)Gal(b1-4)GlcNAc(b1-2)Man(a1-3)[Neu5Ac(a2-3)Gal(b1-4)GlcNAc(b1-2)Man(a1-6)]Man(b1-4)GlcNAc(b1-4)GlcNAc", "method_in_brief": "as §1"}, "[32]": {"target": "Neu5Ac(a2-3)Gal(b1-4)GlcNAc(b1-2)Man(a1-3)[Neu5Ac(a2-3)Gal(b1-4)GlcNAc(b1-2)Man(a1-6)]Man(b1-4)GlcNAc(b1-4)[Fuc(a1-6)]GlcNAc", "method_in_brief": "as §1"}, "[33]": {"target": "Neu5Ac(a2-3)Gal(b1-4)GlcNAc(b1-2)Man(a1-3)[Neu5Ac(a2-6)Gal(b1-4)GlcNAc(b1-2)Man(a1-6)]Man(b1-4)GlcNAc(b1-4)GlcNAc", "method_in_brief": "as §1"}}, "note": "The other results are listed elsewhere or left out.", "data": [{"binder": "Als1 (Candida albicans), P46590 (protein) KTITGVFDSFNSLTWSNAANYAFKGPGYPTWNAVLGWSLDGTSANPGDTFTLNMPCVFKYTTSQTSVDLTADGVKYATCQFYSGEEFTTFSTLTCTVNDALKSSIKAFGTVTLPIAFNVGGTGSSTDLEDSKCFTAGTNTVTFNDGDKDISIDVEFEKSTVDPSGYLYASRVMPSLNKVTTLFVAPQCENGYTSGTMGFSSSNGDVAIDCSNIHIGITKGLNDWNYPVSSESFSYTKTCTSNGIQIKYQNVPAGYRPFIDAYISATDVNQYTLAYTNDYTCAGSRLQSKPFTLRWTGYKNSDAGSNGIVIVATTRTVTDSTTAVTTLPFNPSVDKTKTIEILQPIPTTTITTSYVGVTTSYLTKTAPIGETATVIVDVPYHTTTTVTSEWTGTITTTTTRTNPTDSIDTVVVQVP", "values": [{"measurement": "glycan array binding signal (z-score)", "setting": "[1]", "result": -0.404}, {"measurement": "glycan array binding signal (z-score)", "setting": "[2]", "result": 1.09}, {"measurement": "glycan array binding signal (z-score)", "setting": "[3]", "result": -0.35}, {"measurement": "glycan array binding signal (z-score)", "setting": "[4]", "result": -0.299}, {"measurement": "glycan array binding signal (z-score)", "setting": "[5]", "result": -0.09}, {"measurement": "glycan array binding signal (z-score)", "setting": "Man(a1-6)Man", "result": 2.42}, {"measurement": "glycan array binding signal (z-score)", "setting": "Man(b1-4)GlcNAc", "result": -0.265}, {"measurement": "glycan array binding signal (z-score)", "setting": "MurNAc(b1-4)GlcNAc", "result": 0.537}, {"measurement": "glycan array binding signal (z-score)", "setting": "Neu5Ac(a2-3)Gal", "result": 1.18}, {"measurement": "glycan array binding signal (z-score)", "setting": "[6]", "result": -0.421}, {"measurement": "glycan array binding signal (z-score)", "setting": "[7]", "result": -0.623}, {"measurement": "glycan array binding signal (z-score)", "setting": "[8]", "result": -0.587}, {"measurement": "glycan array binding signal (z-score)", "setting": "[9]", "result": -0.111}, {"measurement": "glycan array binding signal (z-score)", "setting": "[10]", "result": -0.676}, {"measurement": "glycan array binding signal (z-score)", "setting": "[11]", "result": -0.408}, {"measurement": "glycan array binding signal (z-score)", "setting": "[12]", "result": 0.341}, {"measurement": "glycan array binding signal (z-score)", "setting": "[13]", "result": 0.264}, {"measurement": "glycan array binding signal (z-score)", "setting": "[14]", "result": -0.644}, {"measurement": "glycan array binding signal (z-score)", "setting": "[15]", "result": -0.269}, {"measurement": "glycan array binding signal (z-score)", "setting": "[16]", "result": -0.473}, {"measurement": "glycan array binding signal (z-score)", "setting": "[17]", "result": -0.559}, {"measurement": "glycan array binding signal (z-score)", "setting": "[18]", "result": 4.25}, {"measurement": "glycan array binding signal (z-score)", "setting": "[19]", "result": -0.166}, {"measurement": "glycan array binding signal (z-score)", "setting": "[20]", "result": 0.907}, {"measurement": "glycan array binding signal (z-score)", "setting": "[21]", "result": -0.874}, {"measurement": "glycan array binding signal (z-score)", "setting": "[22]", "result": -0.179}, {"measurement": "glycan array binding signal (z-score)", "setting": "[23]", "result": -0.015}, {"measurement": "glycan array binding signal (z-score)", "setting": "[24]", "result": 2.38}, {"measurement": "glycan array binding signal (z-score)", "setting": "[25]", "result": -0.412}, {"measurement": "glycan array binding signal (z-score)", "setting": "[26]", "result": -0.663}, {"measurement": "glycan array binding signal (z-score)", "setting": "[27]", "result": 0.517}, {"measurement": "glycan array binding signal (z-score)", "setting": "Neu5Ac(a2-3)Gal(b1-4)Glc", "result": -0.414}, {"measurement": "glycan array binding signal (z-score)", "setting": "[28]", "result": -0.137}, {"measurement": "glycan array binding signal (z-score)", "setting": "[29]", "result": 0.357}, {"measurement": "glycan array binding signal (z-score)", "setting": "[30]", "result": -0.627}, {"measurement": "glycan array binding signal (z-score)", "setting": "[31]", "result": -0.437}, {"measurement": "glycan array binding signal (z-score)", "setting": "[32]", "result": -0.027}, {"measurement": "glycan array binding signal (z-score)", "setting": "[33]", "result": -0.509}]}]}
